# Test results published in the supplement of paper PMC4166925.
# ± gives the standard deviation of the averaged measurements. In all, about 33,000 sequences were measured (“E-score (dimensionless, -0.5 to 0.5)”: median about -0.049, highest 2% from about 0.37 on). Some of the results follow.
# Test system: T1, PmTbr T-box DNA-binding domain (GST fusion)
# T1 sequence: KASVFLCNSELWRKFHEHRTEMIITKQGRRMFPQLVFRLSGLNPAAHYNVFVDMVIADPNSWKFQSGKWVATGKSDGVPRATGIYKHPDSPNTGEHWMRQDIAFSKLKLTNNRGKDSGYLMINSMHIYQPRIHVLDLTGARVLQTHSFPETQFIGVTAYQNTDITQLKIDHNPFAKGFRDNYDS
# Test: PBM E-score of 8-mer (E-score (dimensionless, -0.5 to 0.5)); Tbr is Tbrain of the sea star Patiria miniata (Pm) or the sea urchin Strongylocentrotus purpuratus (Sp); higher = stronger binding preference; most listed sequences are background and not binding sites
# Conditions: the construct has about 5 more residues each side
# Outline: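 GST-fused Tbr T-box DNA-binding domains (the whole T-box plus about five flanking residues) were expressed in BL21 E. coli at 20 °C and purified by glutathione affinity chromatography. Universal Agilent oligonucleotide arrays were made double-stranded by primer extension, incubated with 200 nM protein in PBS (pH 7.5), then scanned and quantified. Every ungapped 8-mer was scored from probe intensities. The Universal PBM Analysis Suite gave each word an enrichment E-score, averaged over duplicate arrays.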
row,Sequence,PBM E-score of 8-mer
1,CCTCCTTC,-0.0428 ± 0.04
2,ACAGCGCA,-0.0538 ± 0.03
3,ATCCGGCG,-0.102 ± 0.025
4,ATACGGAT,0.13 ± 0.072
5,GGACTGCC,-0.0971 ± 0.026
6,ATTAGCAC,0.417 ± 0.016
7,CCGACCGA,-0.242 ± 0.017
8,CTACCCCC,-0.368 ± 0.012
9,GAGCCGCA,0.0205 ± 0.0072
10,CGAATTGC,0.145 ± 0.031
11,AGGTACCG,-0.0424 ± 0.0029
12,GGACTATA,-0.046 ± 0.0076
13,GAATCTGC,-0.0483 ± 0.062
14,TCGCGGAA,0.129 ± 0.023
15,ACCCCTTC,-0.0359 ± 0.016
16,CATCGCCG,-0.0904 ± 0.042
17,CCACCGGC,-0.0335 ± 0.022
18,GATTTTGC,0.189 ± 0.061
19,GCGACACC,0.462 ± 0.011
20,CGTCTTTA,-0.282 ± 0.011
21,CCCTTGCC,-0.21 ± 0.056
22,ATTCTTAA,-0.159 ± 0.011
23,CCGGGAAC,-0.218 ± 0.045
24,ATCGGGTC,-0.0105 ± 0.12
25,CAGCACTC,-0.0345 ± 0.0064

row,Sequence,PBM E-score of 8-mer
1,GCGAGAGA,0.232 ± 0.015
2,CGTTAGAG,0.0417 ± 0.059
3,ATGTGGTA,0.0665 ± 0.092
4,GAGGACAC,0.103 ± 0.0019
5,ACCTCCAC,0.173 ± 0.016
6,ACTGATCT,-0.265 ± 0.037
7,GCTATCCA,0.00344 ± 0.057
8,GCGGCAAC,0.159 ± 0.028
9,ACATGCGA,0.138 ± 0.072
10,TCGTCAGA,-0.0513 ± 0.038
11,GGCGAGGA,0.156 ± 0.013
12,AGGATAGG,-0.12 ± 0.019
13,GAGTTATA,-0.261 ± 0.0085
14,CCCTTTTA,-0.0988 ± 0.019
15,GCCATACC,-0.262 ± 0.057
16,CGGACTAG,0.102 ± 0.057
17,AGGGGATG,-0.0557 ± 0.055
18,AAGTAGGC,-0.0378 ± 0.082
19,AGATGCCG,-0.306 ± 0.025
20,ACGATGGA,-0.0832 ± 0.044
21,CGGCCCAA,-0.195 ± 0.048
22,CGGAACCA,-0.0801 ± 0.039
23,ATTGATGA,-0.185 ± 0.068
24,ACCGCGAG,0.0859 ± 0.017
25,TTAGTAAA,-0.0101 ± 0.081

row,Sequence,PBM E-score of 8-mer
1,GACTAGCC,-0.0835 ± 0.014
2,TCTATAAA,-0.131 ± 0.025
3,CCCATGCA,0.19 ± 0.039
4,ACAACTAT,0.16 ± 0.061
5,CATCTTAC,-0.2745 ± 0.0018
6,AGCATAGG,-0.2071 ± 0.00035
7,ACACTAGA,0.245 ± 0.045
8,CGGATATC,-0.155 ± 0.05
9,ATAGTCGA,-0.141 ± 0.059
10,ACCTATCG,0.201 ± 0.0072
11,TTCACGAA,0.169 ± 0.045
12,ATGGCTTA,-0.162 ± 0.044
13,TACTTTAA,-0.0228 ± 0.022
14,ACAAGGGG,0.0202 ± 0.12
15,AGGGCTTC,-0.154 ± 0.037
16,ATCAAGAT,-0.105 ± 0.0095
17,GGCCGATA,-0.0723 ± 0.084
18,GCCATTAC,-0.169 ± 0.06
19,CAGGCCCC,-0.291 ± 0.035
20,CCAATATA,-0.0877 ± 0.0097
21,CATTCCGG,-0.145 ± 0.021
22,GCTATAGC,-0.2082 ± 0.00094
23,CCCCAGTC,-0.0749 ± 0.095
24,CAGCAATA,-0.0283 ± 0.018
25,AAGCTAGG,-0.169 ± 0.051

row,Sequence,PBM E-score of 8-mer
1,GCCCTTTA,-0.3 ± 0.045
2,GCTTGTTA,-0.00297 ± 0.095
3,AATAAGCT,-0.0428 ± 0.0098
4,ACCACCAT,0.1243 ± 0.0012
5,GATTTAAA,-0.0114 ± 0.12
6,CGTCTTGC,-0.0644 ± 0.025
7,AGAATCCG,-0.0956 ± 0.045
8,AATCTTCT,-0.0826 ± 0.034
9,TCGGGAGA,-0.05273 ± 0.00029
10,CGACTAGC,0.211 ± 0.072
11,ATGCCCCA,-0.243 ± 0.014
12,CTGTCTTA,-0.0958 ± 0.0012
13,AGACACGG,0.0464 ± 0.014
14,CAAGGAGG,-0.149 ± 0.034
15,AGCCGAGA,-0.051 ± 0.027
16,GGCACCCC,0.244 ± 0.03
17,CTGCGAAG,0.198 ± 0.028
18,AACAGAGC,0.0265 ± 0.018
19,CTGTGACA,0.3356 ± 0.0016
20,ATAGACGC,-0.00834 ± 0.056
21,ATCAGGAA,-0.126 ± 0.038
22,CCGCTGCA,0.00299 ± 0.1
23,AACATCTG,0.0152 ± 0.04
24,CAACAACC,0.00279 ± 0.011
25,CTAAGTTA,-0.0438 ± 0.018

row,Sequence,PBM E-score of 8-mer
1,AAGATCAT,-0.0474 ± 0.023
2,CCTCTGAC,-0.03519 ± 0.00011
3,CGAGCCAC,0.0291 ± 0.056
4,TCCTCAGA,-0.0553 ± 0.0035
5,CGCGCAAG,0.205 ± 0.013
6,ACATTTTG,0.00324 ± 0.052
7,GTACGCTA,-0.138 ± 0.049
8,ACAGAAGA,-0.242 ± 0.047
9,CCGAATAA,-0.123 ± 0.031
10,CCACAAAG,-0.166 ± 0.0051
11,ACCCACAT,0.203 ± 0.096
12,ACGGTGTG,0.324 ± 0.012
13,CGTCTCCC,-0.166 ± 0.0041
14,AACACGCA,0.201 ± 0.028
15,AGTACAAT,-0.026 ± 0.026
16,AGACTTGA,-0.0354 ± 0.064
17,GCATGCGC,-0.108 ± 0.0061
18,TGTTGGAA,0.0995 ± 0.033
19,CATGCCCC,-0.263 ± 0.027
20,GGCTCAAC,-0.303 ± 0.062
21,TGTGCAAA,0.197 ± 0.043
22,CATATCTA,-0.213 ± 0.01
23,CCGAAATC,-0.0059 ± 0.0078
24,CGTCTTAC,-0.208 ± 0.0023
25,CCCTTACG,-0.0493 ± 0.019

row,Sequence,PBM E-score of 8-mer
1,AGCGGGTA,0.057 ± 0.052
2,AGACGCAA,-0.198 ± 0.011
3,GCAGAGGC,-0.264 ± 0.013
4,AAATAACG,0.197 ± 0.0099
5,ATCGCCTG,0.203 ± 0.019
6,CGGGCGAG,-0.166 ± 0.074
7,GGGCAGAA,0.0722 ± 0.079
8,GGATTCTA,-0.298 ± 0.041
9,CACTTTAG,0.264 ± 0.0037
10,ATTGAGAC,-0.0083 ± 0.048
11,GGATGTAA,-0.229 ± 0.0011
12,CTCGTAGC,-0.041 ± 0.014
13,ATCTGTTC,-0.0654 ± 0.027
14,AGCAGATC,-0.0345 ± 0.038
15,ATATTTGC,0.027 ± 0.032
16,ATCGCAGG,0.0806 ± 0.064
17,GAGCGTGC,0.066 ± 0.027
18,GCCAGCAC,0.158 ± 0.09
19,GTTAGGAA,-0.0202 ± 0.0087
20,TCCGGAAA,-0.161 ± 0.0091
21,CGCACCCG,0.324 ± 0.0037
22,TCGACGAA,0.037 ± 0.0028
23,ATGCCCGC,-0.0794 ± 0.062
24,CACATGAG,0.166 ± 0.027
25,TAGACGCA,-0.179 ± 0.0073

row,Sequence,PBM E-score of 8-mer
1,ACTTAAAC,-0.0238 ± 0.043
2,CAACTACC,0.0301 ± 0.007
3,CGAGCGCA,-0.0373 ± 0.017
4,AGCGAGGA,0.0341 ± 0.031
5,CCGGGCGC,0.0792 ± 0.059
6,CATGAAAG,0.0539 ± 0.074
7,CATACGGA,-0.00485 ± 0.015
8,AGGGCAAA,-0.249 ± 0.017
9,ATGTGTTC,0.156 ± 0.025
10,GCGCAAAC,0.188 ± 0.0069
11,GCTGCAAC,-0.0887 ± 0.058
12,CCGGGCGA,0.0305 ± 0.02
13,AGGACGGA,-0.29 ± 0.059
14,GCATAATA,-0.284 ± 0.049
15,AAGCAGGG,-0.0186 ± 0.012
16,ATGACACG,0.312 ± 0.017
17,AAACCGAG,-0.165 ± 0.054
18,AGCGTCGC,0.136 ± 0.0041
19,ACAATTTG,0.13 ± 0.025
20,GGTGGGGA,0.187 ± 0.091
21,AAACTGTA,-0.0465 ± 0.018
22,CACTAAAC,0.07093 ± 0.00042
23,AAACGGCG,0.071 ± 0.062
24,AGTGTAAT,0.169 ± 0.029
25,AAATATAA,-0.0204 ± 0.061

row,Sequence,PBM E-score of 8-mer
1,CCACGAGG,0.0714 ± 0.04
2,CTGTCCAC,-0.0488 ± 0.05
3,ACTACAGC,-0.075 ± 0.044
4,CCTTGCGC,0.147 ± 0.004
5,CCTACACG,-0.0773 ± 0.012
6,ACAGCAGA,-0.119 ± 0.028
7,CCAAAGGG,-0.223 ± 0.0054
8,GGACATCC,-0.177 ± 0.049
9,TTAATGAA,-0.121 ± 0.067
10,GCTTCCCA,0.0286 ± 0.02
11,CTATCAAC,0.0836 ± 0.077
12,ATATCGAT,0.0212 ± 0.035
13,AAAGCTTC,-0.197 ± 0.049
14,CTATGCTA,0.0008 ± 0.027
15,ATGTTGAC,0.142 ± 0.011
16,GAGTCTAC,-0.282 ± 0.068
17,CAGGGGGA,-0.147 ± 0.025
18,GTTTCTAA,0.01 ± 0.0033
19,CAGTGCAA,-0.065 ± 0.002
20,GGCGTTTA,-0.0165 ± 0.031
21,GTTTACTA,-0.169 ± 0.013
22,CAAATTTG,-0.0336 ± 0.084
23,TACACCCA,0.129 ± 0.046
24,ACCAGTCA,-0.00763 ± 0.01
25,ATAAATTA,0.0236 ± 0.12

row,Sequence,PBM E-score of 8-mer
1,GTTGACGA,0.211 ± 0.012
2,CACCATAC,0.0544 ± 0.0027
3,CCAATCCC,-0.0159 ± 0.014
4,CAACTCTC,0.0306 ± 0.039
5,AAGTTAAC,0.0306 ± 0.046
6,CGTATGTC,0.0273 ± 0.03
7,ACTATCTC,-0.143 ± 0.0046
8,ATCGTTAA,0.0777 ± 0.0012
9,CTATTTTA,-0.0734 ± 0.15
10,AGTGGTCC,-0.302 ± 0.016
11,CCTGGTAC,0.0451 ± 0.018
12,GTAATGTA,-0.3336 ± 0.0019
13,CCAACAAG,0.103 ± 0.017
14,CGTTACAG,-0.012 ± 0.013
15,AGGGTTCA,-0.176 ± 0.056
16,GTTACACA,0.144 ± 0.0086
17,ATAATAGG,-0.0476 ± 0.018
18,ATCATGTC,0.156 ± 0.056
19,ACTGTACT,-0.00485 ± 0.042
